In all, about 150,000 compounds went through this assay and about 540 (0.36%) showed an effect of 50% or more. Some of the results follow.
What follows are molecules tested on Plasmodium falciparum (assay: Primary screen in NF54 nanoGlo assay, in single point, at 2uM, 72h; a lower Z score goes with more inhibition). Settings: timepoint 72 hour.
Type: functional, Erythrocyte

SMILES | % Inhibition | Z score
C[C@@H](NC(=O)c1ccccc1)c1onc(-c2cccnc2)c1C(=O)O | 14% | -1.61
CCN1C[C@@H](CN(C)C(=O)c2cn(C/C=C/c3ccccc3)nn2)CC1=O | -4% | 0.44
Fc1cccc(-c2nccn2CCCc2ccncc2)c1F | -7% | 0.92
CC[C@H](NCc1ccccc1OCCO)c1nc(C)c(C)s1 | 7% | -1.47
COc1cc(C)c(S(=O)(=O)N(Cc2ccccn2)C2CC2)c(C)c1 | -2% | 0.4
COc1ccc(-c2cn3nc4c(nc3n2)CCCC4)cc1 | 9% | -1.01
O=C(NCCn1nc(C(F)(F)F)cc1C1CC1)c1cccnc1 | -13% | 1.72
CCOCCN1C[C@]23C=C[C@H](O2)C(C(=O)N2CCC(F)(F)CC2)C3C1=O (stereo partly specified) | -9% | 1.86
CCOCCC(=O)Nc1nn(-c2ccc(F)cc2)c2cccc(N3CCOC3=O)c12 | -23% | 2.13
CC[C@@](C)(CCNC(=O)N1CCS(=O)(=O)CC1)c1ccccc1OC | 2% | -0.31
Cc1noc(COc2ccc(CCO)cc2-n2nc3ccccc3n2)n1 | -12% | 1.25
CCN(Cc1nc2cc(Cl)ccc2c(=O)[nH]1)C(=O)CCc1ccccc1F | -4% | 0.3
Cc1nccn1C1CN(C(=O)c2cccs2)C1 | 8% | -1.28
CC(C)c1noc(C(C)N2CCC(OCCN3CCCCC3)C2)n1 (stereo unspecified) | -14% | 1.39
CCc1cc(C(=O)NC[C@H]2CCC[C@@H](CO)C2)oc1CC | -44% | 5.12
Cc1cccc(N2CCN(S(=O)(=O)c3cc(-c4nc(C)c(C)s4)cs3)CC2)c1 | -8% | 1.12
N[C@H]1CN(C(=O)c2ccnc(-c3ccccn3)n2)CC12CCC2 | -3% | 0.41
Cc1ccc(CN(C(N)=O)[C@H]2CCc3ccccc32)cc1 | -9% | 1.75
O=C1N(Cc2cc(Cl)ccc2F)c2ccccc2NC12CCNCC2 | -11% | 2.19
O=C(c1ccc(N2CCCCS2(=O)=O)cc1)N1CCN(C(=O)c2ccco2)CC1 | 8% | -1.03
Cc1ccc(CN2CC[C@H](CNC(=O)C3CCN(c4nc5ccc(C)cc5[nH]4)CC3)C2)cc1 | -3% | 0.45
O=C1CN(C2CCCCCC2)C2CS(=O)(=O)CC2N1c1ccc(Br)cc1 (stereo unspecified) | -13% | 1.65
Cc1cccc(N2CCN(C(=O)NC[C@@H](c3ccco3)N3CCCC3)CC2)c1C | 10% | -1.36
